Assay results: the supplement of paper PMC4967469
IC50 is the fitted dose that halves viability relative to control wells, and lower means more sensitive; where the fit passes the top or lowest dose, that dose stands as a limit. AUC, from the same fit, is the share of area under the viability curve across the 256-fold dose range; values near 1 show little effect.

Compound: NC1(c2ccc(-c3nc4ccn5c(=O)[nH]nc5c4cc3-c3ccccc3)cc2)CCC1 [MK-2206]
Assay: Viability of human cancer cell lines after 72 h of drug (GDSC screen)
Experimental: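 Human cancer cell lines in 384-well plates, medium with 10% serum, drug for 72 h over a 256-fold dose range (nine 2-fold or five 4-fold steps up to the top dose). Adherent lines were fixed and stained with the nucleic acid dye Syto60, suspension lines read with resazurin; signal relative to control wells, capped at 0 and 100%. One two-parameter sigmoid per drug and line, fitted in a mixed model over all curves with the slope shared within a line.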

Cell Line	AUC	IC50 [nM]
H3118 (head and neck, adherent, top dose 4 µM)	0.808	2300
LU-135 (small cell lung carcinoma, suspension, top dose 4 µM)	0.937	> 4000
CAL-78 (chondrosarcoma, adherent, top dose 4 µM)	0.862	> 4000
RKO (large intestine, adherent, top dose 4 µM)	0.755	1270
MDA-MB-415 (breast, adherent, top dose 4 µM)	0.649	744
SUP-HD1 (Hodgkin lymphoma, suspension, top dose 4 µM)	0.918	> 4000
MKN28 (stomach, adherent, top dose 4 µM)	0.862	3570
SK-MM-2 (myeloma, suspension, top dose 4 µM)	0.875	> 4000
NCI-H1355 (lung adenocarcinoma, adherent, top dose 2 µM)	0.883	> 2000
HuP-T3 (pancreas, adherent, top dose 4 µM)	0.903	> 4000
NCI-H1563 (lung adenocarcinoma, adherent, top dose 4 µM)	0.57	404
NCI-H345 (small cell lung carcinoma, suspension, top dose 4 µM)	0.952	> 4000
HT-3 (cervix, adherent, top dose 4 µM)	0.949	> 4000
JHOS-2 (ovary, adherent, top dose 4 µM)	0.807	2470
A4-Fuk (B-cell lymphoma, suspension, top dose 4 µM)	0.538	318
SCH (stomach, adherent, top dose 4 µM)	0.968	> 4000
CCF-STTG1 (glioma, adherent, top dose 4 µM)	0.851	3080
SU-DHL-5 (B-cell lymphoma, suspension, top dose 4 µM)	0.57	370
JHOS-4 (ovary, adherent, top dose 4 µM)	0.773	2300
KATOIII (stomach, semi-adherent, top dose 4 µM)	0.904	> 4000
OV-17R (ovary, adherent, top dose 4 µM)	0.713	1290

Cell Line	AUC	IC50 [nM]
MDST8 (large intestine, adherent, top dose 4 µM)	0.9	> 4000
SNU-182 (liver, adherent, top dose 4 µM)	0.753	1390
HUTU-80 (digestive system, adherent, top dose 4 µM)	0.867	2610
HO-1-u-1 (head and neck, adherent, top dose 4 µM)	0.844	2700
LU-165 (small cell lung carcinoma, suspension, top dose 4 µM)	0.985	> 4000
HCC1419 (breast, adherent, top dose 4 µM)	0.61	568
HT-1376 (bladder, adherent, top dose 4 µM)	0.95	> 4000
SKN-3 (head and neck, adherent, top dose 4 µM)	0.92	> 4000
IGR-37 (melanoma, adherent, top dose 4 µM)	0.753	1230
OVKATE (ovary, adherent, top dose 4 µM)	0.91	> 4000
COR-L88 (small cell lung carcinoma, adherent, top dose 4 µM)	0.986	> 4000
CAS-1 (glioma, adherent, top dose 4 µM)	0.919	> 4000
SNU-C5 (large intestine, adherent, top dose 4 µM)	0.814	2450
ESO26 (oesophagus, adherent, top dose 4 µM)	0.801	1830
TE-6 (oesophagus, adherent, top dose 4 µM)	0.874	> 4000
RERF-LC-Sq1 (lung squamous cell carcinoma, adherent, top dose 4 µM)	0.858	> 4000
VCaP (prostate, adherent, top dose 4 µM)	0.906	> 4000
NCI-H1836 (small cell lung carcinoma, suspension, top dose 4 µM)	0.988	> 4000
ETK-1 (biliary tract, adherent, top dose 4 µM)	0.852	3760
SNU-407 (large intestine, adherent, top dose 4 µM)	0.815	2670
T84 (large intestine, adherent, top dose 4 µM)	0.989	> 4000

Cell Line	AUC	IC50 [nM]
MC116 (B-cell lymphoma, suspension, top dose 4 µM)	0.999	> 4000
MC-CAR (haematopoietic neoplasm, suspension, top dose 4 µM)	0.476	216
ML-2 (acute myeloid leukaemia, suspension, top dose 4 µM)	0.981	> 4000
UACC-62 (melanoma, adherent, top dose 4 µM)	0.957	> 4000
EW-11 (Ewing sarcoma, adherent, top dose 4 µM)	0.836	3830
KYSE-140 (oesophagus, adherent, top dose 4 µM)	0.908	> 4000
GAK (melanoma, adherent, top dose 4 µM)	0.981	> 4000
MHH-PREB-1 (B-cell leukaemia, suspension, top dose 4 µM)	0.815	1920
NCI-H2135 (non-small cell lung carcinoma, adherent, top dose 4 µM)	0.991	> 4000
SR (lymphoid neoplasm, suspension, top dose 4 µM)	0.894	3980
AsPC-1 (pancreas, adherent, top dose 2 µM)	0.532	162
DMS-79 (small cell lung carcinoma, suspension, top dose 4 µM)	0.961	> 4000
IMR-5 (neuroblastoma, adherent, top dose 4 µM)	0.992	> 4000
A101D (melanoma, adherent, top dose 4 µM)	0.911	> 4000
NCI-H1694 (small cell lung carcinoma, suspension, top dose 4 µM)	0.871	3730
UACC-257 (melanoma, adherent, top dose 4 µM)	0.92	> 4000
NCI-H1944 (lung adenocarcinoma, adherent, top dose 4 µM)	0.743	1320
NCI-H187 (small cell lung carcinoma, suspension, top dose 4 µM)	0.821	2590
BE2-M17 (neuroblastoma, adherent, top dose 4 µM)	0.89	> 4000
SK-N-AS (neuroblastoma, adherent, top dose 4 µM)	0.938	> 4000
NB17 (neuroblastoma, adherent, top dose 4 µM)	0.984	> 4000

Cell Line	AUC	IC50 [nM]
TC-71 (Ewing sarcoma, adherent, top dose 4 µM)	0.965	> 4000
SW756 (cervix, adherent, top dose 4 µM)	0.876	> 4000
CTB-1 (B-cell lymphoma, suspension, top dose 4 µM)	0.803	2890
NCI-H747 (large intestine, adherent, top dose 4 µM)	0.794	2310
DEL (lymphoid neoplasm, suspension, top dose 4 µM)	0.994	> 4000
Becker (glioma, adherent, top dose 4 µM)	0.862	> 4000
NY (osteosarcoma, adherent, top dose 4 µM)	0.978	> 4000
RCC-ER (kidney, adherent, top dose 4 µM)	0.725	1180
SK-CO-1 (large intestine, adherent, top dose 4 µM)	0.904	> 4000
MS751 (cervix, adherent, top dose 4 µM)	0.975	> 4000
BICR10 (head and neck, adherent, top dose 4 µM)	0.542	330
LB373-MEL-D (melanoma, adherent, top dose 4 µM)	0.925	> 4000
HuH-7 (liver, adherent, top dose 4 µM)	0.766	1470
HCC-827 (lung adenocarcinoma, adherent, top dose 4 µM)	0.969	> 4000
SUP-B15 (lymphoblastic leukaemia, suspension, top dose 4 µM)	0.836	2500
IGR-1 (melanoma, adherent, top dose 4 µM)	0.99	> 4000
CAL-39 (cervix, adherent, top dose 4 µM)	0.876	> 4000
PANC-02-03 (pancreas, adherent, top dose 4 µM)	0.799	2360
H2731 (mesothelioma, adherent, top dose 4 µM)	0.799	2250
